Assay [1] addresses Human MSP β 689R with wild-type C672 (HGF leader + V484-G711 + C588S + C672C + His tag) (human, UniProt P26927 484-711). Nature of the assay: SPR capturing RON-Fc at 25 C. Here is the method:
(§1) To determine MSP protein binding kinetics to hRON-Fc or mRON-Fc fusion proteins, between 50 and 100 response units (RU) were captured on each of three immobilized anti-human Fc surfaces. Various concentrations (50-0.78 nM, 2-fold dilution series) of MSP, MSP β, MSP α or scMSP were injected in HBS-P buffer (10 mM HEPES, pH 7.5, 150 mM NaCl, 0.005% P20) at 25° C. with a flow rate of 30 μL/min and dissociation monitored for 4 min. Between measurements, the biosensor surfaces were regenerated with a 2 min pulse of 10 mM glycine-HCl pH 1.5.

Assay [2] addresses T1, Full length human MSP 689R (wild type + C672A + His tag), active two-chain form (human, UniProt P26927 19-483; P26927 484-711).
T1 construct: Pro-MSP converted with sHepsin into the disulfide-linked alpha/beta heterodimer; Numbering is that of pro-MSP; also called full-length MSP; human full-length MSP
Description: SPR capturing RON-Fc at 25 C. Here is the method: as §1

The target of assay [3] is T1, Full length human MSP 689R (wild type + …). Description: BLI using RON-Fc at 30 C. Here is the method:
Real-time kinetic measurements of MSP binding to RON were conducted using an Octet RED384 (ForteBio, Inc). Samples or buffer were dispensed into 96-well microtiter plates (Greiner Bio-One North America, Inc.) at a volume of 200 μl per well. Anti-human IgG Fc Biosensors were used for the experiments. Each experiment consisted of three steps: incubation with ForteBio Kinetic buffer diluted 1:10 in PBS assay buffer to establish an equilibrium for 120 s (baseline), incubation with 10 μg/ml RON-Fc in assay buffer to coat the biosensor with binding target for 900 s (load), incubation with MSP, MSP β or scMSP in assay buffer containing various concentrations (75-4.7 nM, 2-fold dilution series) for 400 s (association), and incubation with assay buffer to measure the off-rate of MSP for 400 s (dissociation). Operating temperature was maintained at 30° C. Data were generated automatically by the Octet Data Acquisition 7.0 software. Each data set was fitted globally to a simple one-to-one binding model using ForteBio Analysis Software 7.0 to determine the kinetic parameters kₐ and kd. The equilibrium dissociation constants (KD) were then calculated as a ratio (koff/kₒₙ) of these rate constants.

Assay [4] shares this target. Nature of the assay: SPR (Biacore), anti-Fc chip, murine RON-Fc captured and MSP protein injected; table headed 'Similar High Affinities for Murine RON'. The method, then:
Binding kinetics of RON to MSP β-Fc fusion proteins and MSP proteins to RON-Fc fusions were determined using a Biacore 3000 optical biosensor equipped with a research-grade CM5 sensor chip (GE Healthcare). Amine coupling reagents, N-ethyl-N′-dimethylamino-propylcarbodiimide (EDC), N-hydroxy-succinimide (NHS) and sodium ethanolamine HCl, pH 8.5, were obtained from GE Healthcare. Standard coupling protocols were used to tether a rabbit anti-human IgG1 or rabbit anti-murine IgG2a (Jackson ImmunoResearch Laboratories) onto the biosensor surface. A biosensor chip that was subjected to the amine coupling procedure with no protein coupled was used to correct for non-specific binding. […] Various concentrations (500-3.9 nM, 2-fold dilution series) of RON-His, were injected in HBS-P buffer (10 mM HEPES, pH 7.5, 150 mM NaCl, 0.005% P20) at 25° C. with a flow rate of 30 μL/min and dissociation monitored for 240 sec. Between measurements, the biosensor surfaces were regenerated with a 120 s pulse of 10 mM glycine-HCl pH 1.5 followed by a 120 s wash with running buffer.
To function as a RON agonist, MSPβ-IgG2a fusion proteins must bind the RON receptor. To assay binding, surface plasmon resonance was used to measure the affinity of full-length human MSP, human and mouse MSP β, and a number of human and mouse MSPβ-IgG2a fusions for immobilized RON receptor. […]

B1: Human RON-hIgG1 Fc (RON Sema/PSI/IPT1 fused to human IgG1 Fc) (Fc fusion)
chain: [letters of about 550 residues left out]PKLTEFHPHSGPLRGSTRLTLCGSNFYLHPSGLVPEGTHQVTVGQSPCRPLPKDSSKLRPVPRKDFVEEFECELEPLGTQAVGPTNVSLTVTNMPPGKHFRVDGTSVLRGFSFMTGTVT[letters of human IgG1 Fc left out]
notes: also called RON-Fc; hRON-Fc
B1: in assay [1], the Kd – broadly, the free concentration of one partner at which half of the binding sites on the other are occupied at equilibrium, for simple one-to-one binding – stood at 6.3 nM; the koff – broadly, a measure of how fast the partners let go of each other – was 0.0066 s⁻¹; the kon – broadly, a measure of how fast the partners come together – is 956000 M⁻¹ s⁻¹. Also, in assay [2], the Kd came out at 6.4 nM, the koff was determined as 0.0033 s⁻¹ and the kon came out at 511000 M⁻¹ s⁻¹. Further, the Kd in assay [3] came out at 9.9 nM.

B2: Mouse RON-hIgG1 Fc (murine RON Sema/PSI/IPT1, natural leader + R33-V684, fused to human IgG1 Fc) (Fc fusion)
chain: STNLNWQCPRIPYAASRDFSVKYVVPSFSAGGRVQATAAYEDSTNSAVFVATRNHLHVLGPDLQFIENLTTGPIGNPGCQTCASCGPGPHGPPKDTDTLVLVMEPGLPALVSCGSTLQGRCFLHELEPRGKALHLAAPACLFSANNNKPEACTDCVASPLGTRVTVVEQGHASYFYVASSLDPELAASFSPRSVSIRRLKSDTSGFQPGFPSLSVLPKYLASYLIKYVYSFHSGDFVYFLTVQPISVTSPPSALHTRLVRLNAVEPEIGDYRELVLDCHFAPKRRRRGAPEGTQPYPVLQAAHSAPVDAKLAVELSISEGQEVLFGVFVTVKDGGSGMGPNSVVCAFPIYHLNILIEEGVEYCCHSSNSSSLLSRGLDFFQTPSFCPNPPGGEASGPSSRCHYFPLMVHASFTRVDLFNGLLGSVKVTALHVTRLGNVTVAHMGTVDGRVLQVEIARSLNYLLYVSNFSLGSSGQPVHRDVSRLGNDLLFASGDQVFKVPIQGPGCRHFLTCWRCLRAQRFMGCGWCGDRCDRQKECPGSWQQDHCPPEISEFYPHSGPLRGTTRLTLCGSNFYLRPDDVVPEGTHQITVGQSPCRLLPKDSSSPRPGSLKEFIQELECELEPLVTQAVGTTNISLVITNMPAGKHFRVEGISVQEGFSFGRAQVT[letters of human IgG1 Fc left out]
notes: also called mRON-hFc; murine RON-Fc
In the case of B2, in assay [4], the Kd was found to be 5.3 nM.

(Values after US20160032013A1 (Genentech, published 2016).)
